Source: a collection of fitness landscapes (doi:10.1126/science.1257360)
This is one part of the list.

B1: PhoQ; a variant is named by its letters at X, in order, P23837 (parent)
chain: MKKLLRLFFPLSLRVRFLLATAAVVLVLSLAYGMVALIGYSVSFDKTTFRLLRGESNLFYTLAKWENNKLHVELPENIDKQSPTMTLIYDENGQLLWAQRDVPWLMKMIQPDWLKSNGFHEIEADVNDTSLLLSGDHSIQQQLQEVREDDDDAEMTHSVAVNVYPATSRMPKLTIVVVDTIPVELKSSYMVWSWFIYVLSANLLLVIPLLWVAAWWSLRPIEALAKEVRELEEHNRELLNPATTRELTSLVRNLNRLLKSERERYDKYRTTLTDLTHSLKTPLXXLQXXLRSLRSEKMSVSDAEPVMLEQISRISQQIGYYLHRASMRGGTLLSRELHPVAPLLDNLTSALNKVYQRKGVNISLDISPEISFVGEQNDFVEVMGNVLDNACKYCLEFVEISARQTDEHLYIVVEDDGPGIPLSKREVIFDRGQRVDTLRPGQGVGLAVAREITEQYEGKIVAGESMLGGARMEVIFGRQHSAPKDE

Variants of: B1
Experiment: enrichment ratio after two sorts for PhoP signalling (ratio (wild type AVST 3.29)); higher = more functional
Details: with PhoP (E. coli)

Variant	enrichment ratio
NQIE	≤ 0.25
MVAA	≤ 0.25
TTGW	≤ 0.25
PGMS	≤ 0.25
KCWK	≤ 0.25
MGDP	≤ 0.25
RHGE	≤ 0.25
TFNA	2.84
FPLQ	≤ 0.25
LPWY	≤ 0.25
VTKS	≤ 0.25
DTVH	≤ 0.25
TFWS	≤ 0.25
IMYK	≤ 0.25
VHSS	≤ 0.25
GHVD	≤ 0.25
WKCI	≤ 0.25
RGCM	≤ 0.25
PANH	≤ 0.25
EQGT	≤ 0.25
LIQH	≤ 0.25
KEPD	≤ 0.25
YDAY	≤ 0.25
ANHA	≤ 0.25
NQRT	≤ 0.25
GYMW	≤ 0.25

Variant	enrichment ratio
INIE	≤ 0.25
RQHN	≤ 0.25
DHLF	≤ 0.25
QHWS	≤ 0.25
THGI	1.93
ERAR	≤ 0.25
GQII	≤ 0.25
NVAT	≤ 0.25
SPKR	≤ 0.25
NHLM	≤ 0.25
ENPC	≤ 0.25
VFGT	≤ 0.25
MCCA	≤ 0.25
VMSQ	≤ 0.25
KTCK	≤ 0.25
AKES	≤ 0.25
WVHK	≤ 0.25
KFQW	≤ 0.25
DSSL	≤ 0.25
RSRG	≤ 0.25
WGKQ	≤ 0.25
GCNK	≤ 0.25
KSKF	≤ 0.25
MSCS	0.763
EKAP	≤ 0.25
NQLC	≤ 0.25

Variant	enrichment ratio
TDPG	≤ 0.25
HGTN	≤ 0.25
LHQR	0.306
DWAN	≤ 0.25
MVTM	3.98
VAKV	≤ 0.25
VDAY	≤ 0.25
SLLY	≤ 0.25
PEQA	≤ 0.25
WGQF	≤ 0.25
GMNF	≤ 0.25
YECA	0.253
IFQH	≤ 0.25
QFWS	≤ 0.25
ASAG	7.21
DEPN	≤ 0.25
ANLQ	3.29
YGRC	≤ 0.25
MDFD	≤ 0.25
ETIS	≤ 0.25
NKQT	≤ 0.25
NWDM	≤ 0.25
SGWF	≤ 0.25
IFVM	≤ 0.25
QHEY	≤ 0.25
FEHG	≤ 0.25

Variant	enrichment ratio
HGGW	≤ 0.25
QMVN	≤ 0.25
TQLD	4
MSTG	≤ 0.25
THAQ	≤ 0.25
NHQR	≤ 0.25
TIVE	≤ 0.25
ANFL	≤ 0.25
QLSV	0.989
TIYL	4.11
LMRL	≤ 0.25
HQKC	≤ 0.25
DFPV	≤ 0.25
YQMK	≤ 0.25
SYYS	0.264
SVDL	1.56
MYSQ	≤ 0.25
VHET	≤ 0.25
GSAE	≤ 0.25
NFCP	≤ 0.25
PDTK	≤ 0.25
KKWL	≤ 0.25
VDQC	≤ 0.25
TSTA	14.2
RRNY	≤ 0.25
NSQL	≤ 0.25

Variant	enrichment ratio
TFQW	≤ 0.25
SCRM	≤ 0.25
AFKG	≤ 0.25
WVTM	≤ 0.25
ESEC	≤ 0.25
DGGK	≤ 0.25
QSKA	≤ 0.25
HKVA	≤ 0.25
PCNT	≤ 0.25
YLID	≤ 0.25
MEQP	≤ 0.25
QDNC	≤ 0.25
TGAA	7.8
WRWP	≤ 0.25
MHDN	≤ 0.25
GLCP	≤ 0.25
SRDA	≤ 0.25
PDSH	≤ 0.25
NHCP	≤ 0.25
NNWI	≤ 0.25
HYMG	≤ 0.25
FGEC	≤ 0.25
PQYC	≤ 0.25
DALF	≤ 0.25
MFPF	≤ 0.25
WLDT	≤ 0.25

Variant	enrichment ratio
QLRK	≤ 0.25
WFAT	≤ 0.25
TPLI	≤ 0.25
DWRV	≤ 0.25
PRHN	≤ 0.25
IGEY	≤ 0.25
FGWT	≤ 0.25
WHWP	≤ 0.25
HLAQ	≤ 0.25
LFCY	≤ 0.25
GKCL	10
YVNR	≤ 0.25
IVYR	≤ 0.25
WLIF	≤ 0.25
VVWP	≤ 0.25
HLSN	≤ 0.25
FYRN	≤ 0.25
RTDC	≤ 0.25
IPNY	≤ 0.25
HRCN	≤ 0.25
VLKI	≤ 0.25
GSDF	≤ 0.25
VSMW	≤ 0.25
